Assay results from PMC6919601, “Identification of Plasmodium dipeptidyl aminopeptidase allosteric inhibitors by high throughput screening” (PLoS ONE, 2019).
Out of some 110,000 compounds screened, about 230 (0.21%) showed an effect of 50% or more. Some of the results follow.

Target: DPAP1 (Plasmodium falciparum, UniProt Q8IIJ9)
Assay: primary screen, percent inhibition; read by cleavage of a fluorogenic dipeptide substrate; higher = more effect of the substance
Parameters: species or system P. falciparum D10 trophozoite lysates; single well
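Also: 30 min substrate incubation versus DMSO and 10 µM JCP410 controls.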

Sequence of DPAP1 (Q8IIJ9 whole entry, looked up): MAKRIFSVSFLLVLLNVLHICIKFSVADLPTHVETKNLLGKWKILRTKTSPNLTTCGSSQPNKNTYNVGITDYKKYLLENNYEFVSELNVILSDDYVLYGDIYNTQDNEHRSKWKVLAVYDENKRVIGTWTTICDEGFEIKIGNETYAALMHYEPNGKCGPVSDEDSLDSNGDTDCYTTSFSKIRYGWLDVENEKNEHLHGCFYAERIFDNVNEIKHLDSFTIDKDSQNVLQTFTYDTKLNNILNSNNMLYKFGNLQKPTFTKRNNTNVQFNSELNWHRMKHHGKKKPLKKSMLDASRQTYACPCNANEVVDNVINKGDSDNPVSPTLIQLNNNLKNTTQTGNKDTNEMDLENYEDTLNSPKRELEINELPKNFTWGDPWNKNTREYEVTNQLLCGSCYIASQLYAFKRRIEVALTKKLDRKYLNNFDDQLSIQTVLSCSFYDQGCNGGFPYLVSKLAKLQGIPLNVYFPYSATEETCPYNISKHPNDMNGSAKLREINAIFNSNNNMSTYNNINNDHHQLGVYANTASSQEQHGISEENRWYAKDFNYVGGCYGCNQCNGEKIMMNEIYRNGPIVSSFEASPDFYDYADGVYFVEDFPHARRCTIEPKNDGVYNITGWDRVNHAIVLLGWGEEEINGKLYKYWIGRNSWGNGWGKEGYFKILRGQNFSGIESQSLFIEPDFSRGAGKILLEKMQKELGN

Row | Compound | % Inhibition @ 10 uM [%]
1 | OC1CCCN(Cc2ccc(-c3ccccc3)cc2)C1 (stereo not shown) | 5.55
2 | COc1ccc(Cl)cc1-c1ccc(/C=C2\SC(=N)N(c3nonc3NC(C)=O)C2=O)o1 | -3.04
3 | O=C(/C=C/c1ccc(Cl)cc1Cl)N1CCN(c2ccc(F)cc2)CC1 | -2.2
4 | O=C(NCC1CCCO1)C1CC(=O)N(CCc2ccccc2)C1 (stereo not shown) | -0.0542
5 | CN(C)CCCNc1oc(-c2ccc(F)cc2)nc1C#N | 0.315
6 | Cc1cccc2c1-c1sc(C(=O)NCCN(C)C)cc1CO2 | -3.3
7 | COc1nc(OC)nc(Oc2ccccc2)n1 | -3.79
8 | O=C(C1=NNCC1c1ccccc1Cl)c1ccccn1 (stereo not shown) | 2.65
9 | Cn1c2ccccc2n2cc(C(C)(C)C)nc12 | 1.43
10 | O=C(c1sc2cc(Cl)ccc2c1Cl)N1CCNCC1 | 3.19
11 | O=C(Nc1ccc(-c2cn3ccsc3n2)cc1)c1cccc(Cl)c1 | 6.24
12 | CCOC(=O)N1CCN(CCc2ccccc2)CC1 | -5.11
13 | Cc1ccc(CNC(=O)c2sc3ccc(S(=O)(=O)N4CCCCC4)cc3c2N)cc1 | 9.45
14 | COc1ccc(-c2cc(C(F)(F)F)n3ncc(C(=O)NCc4cccnc4)c3n2)cc1 | -4.29
15 | CCOC(=O)c1ccc(NC(=O)CCC(=O)O)cc1 | 4.54
16 | CCN(CC)CCn1c(N)nc2ccccc21 | 0.827
17 | CCn1cc(CCCC(=O)N2CCN(Cc3ccccc3)CC2)c2ccccc21 | -3.18
18 | CC(C)(C)C1CCc2c(sc(NC(=O)c3ccc(F)cc3)c2C(N)=O)C1 (stereo not shown) | 3.53
19 | CCN(CC)CCCNC(=O)Cn1ncc2c3ccccc3n(C)c2c1=O | -3.67
20 | CCN1CCC2(CC1)OC(=O)C(C)=C2C(=O)N1CCCC1 | -1.58
21 | Cc1ccc(C(=O)N/C(=C/c2ccco2)C(=O)Nc2ccc(Cl)cc2)cc1 | -6.62
22 | CC1CN(c2nc(-c3ccc(Cl)cc3Cl)nc3ccccc23)CC(C)O1 (stereo not shown) | 0.487
23 | COCCCNCCn1cnc2c(N)ncnc21 | -1.72
24 | COc1ccc(-c2c(C)sc(NC(=O)c3ccnn3C)c2C#N)cc1 | -4
25 | Cc1c2cnn(CC(=O)NCCCN3CCCC3=O)c(=O)c2c(C)n1Cc1ccc(F)cc1 | -2.17

Row | Compound | % Inhibition @ 10 uM [%]
26 | CCS(=O)(=O)N1CCC2(CC1)OC(=O)C(C)=C2C(=O)NC(C)CCc1ccccc1 (stereo not shown) | -0.518
27 | Cc1c(Br)c([N+](=O)[O-])nn1CC(=O)N1CCN(C)CC1 | 5.03
28 | CC1(C)Cc2c(ccc3ccccc23)C(Cc2ccccc2)N1 (stereo not shown) | -1.26
29 | COc1ccc(NC(=O)/C(=C/c2ccccc2)NC(C)=O)cc1 | 4.03
30 | CCOc1ccccc1CNC(=O)c1ccc(-c2nc(CS(=O)(=O)c3ccccc3)c(C)o2)cc1 | -7.09
31 | Cc1ccccc1NC1=C(Cl)C(=O)N(c2ccccc2)C1=O | -4.48
32 | Cc1cccc2sc(N(CCN(C)C)C(=O)C3CCCCC3)nc12 | -0.12
33 | COc1ccc(-c2noc(CC(=O)N3CC(C)CC(C)C3)n2)cc1 (stereo not shown) | 2.49
34 | CC(C)(C)NS(=O)(=O)c1ccc(NC(=O)c2ccc(Cl)cc2Cl)cc1 | -5.69
35 | C/N=C/C1=C(O)C(C)(C)Oc2ccc3ccc(=O)oc3c21 | 2.1
36 | CCOc1ccc(NC2=NC(=O)C(CC(=O)Nc3cc(C)ccc3C)S2)cc1 (stereo not shown) | 1.62
37 | COc1ccc(C2CC(SCC(=O)c3ccccc3)=Nc3ncnn32)cc1 (stereo not shown) | 9.54
38 | COc1ccc2c(=O)c(-c3ccccc3OC)c(C(F)(F)F)oc2c1 | 3.25
39 | O=C(CN1CC(=O)N2CCCC2C1=O)NCCc1ccc(Cl)cc1 (stereo not shown) | 0.372
40 | COc1ccc(C2Oc3ccccc3C3CC(c4cc(C)ccc4O)=NN32)c(OC)c1 (stereo not shown) | -3.48
41 | CC1CCCC(C)N1CCNC(=O)CN1N=C(c2ccccc2)CCC1=O (stereo not shown) | 5.35
42 | O=C(NCc1ccco1)c1ccc(CSc2nc3ccncc3n2Cc2ccc(F)cc2)cc1 | 5.73
43 | CCOc1ccc(-c2csc(NC(=O)c3cccnc3)n2)cc1 | 25.5
44 | CCc1[nH]nc2c1C(c1ccc(OC(F)F)cc1)C(C#N)=C(N)O2 (stereo not shown) | -4.48
45 | O=S(=O)(Nc1nc2ccccc2s1)c1ccc(F)cc1 | 4.3
46 | Cc1ccc2c3c1C(=O)C(=O)N3C(C)(C)CC2(C)c1ccccc1 (stereo not shown) | 0.231
47 | CCC(C)C1C(C#N)=C(N)OC2=C1C(=O)CC(C)(C)C2 (stereo not shown) | 1.82
48 | Cc1ccc(CN(C(=O)c2cc3ccccc3oc2=O)C2CCS(=O)(=O)C2)o1 (stereo not shown) | 3.77
49 | CS(=O)(=O)CC[C@@H](C(=O)NCCCc1ccccc1)N1Cc2ccccc2C1=O | -2.25
50 | Cn1c(=O)[nH]c(=O)c2c1nc(N1CCN(CCO)CC1)n2Cc1ccccc1Cl | 5.43

Row | Compound | % Inhibition @ 10 uM [%]
51 | CCc1ccc(OCC2c3cc(OC)c(OC)cc3CCN2C(=O)C(C)C)cc1 (stereo not shown) | -4.82
52 | CC(C)c1ccc(OCC(=O)Nc2ccc(S(=O)(=O)N3CCCC3)cc2)cc1 | 2.01
53 | CCOC(=O)C1=C(C)N=C2SC=C(c3ccccc3)N2C1c1ccccc1 (stereo not shown) | -3.78
54 | COC(=O)c1ccc(CN2CCCN(C)CC2)cc1 | 0.273
55 | COc1cc(OC)cc(-c2n[nH]c(N)n2)c1 | 3.94
56 | CC(=O)c1ccc(NC(=O)CC2SC(N)=NC2=O)cc1 (stereo not shown) | 5.83
57 | Cc1nc2c(sc3nc4c(cc32)COC(C)(C)C4)c(=O)n1CCc1ccccc1 | 1.64
58 | CS(=O)(=O)N(CC(=O)Nc1cccc2ccccc12)c1cccc(F)c1 | 14
59 | Cn1ccc(C(=O)Nc2cnn(Cc3c(Cl)cccc3Cl)c2)n1 | -1.28
60 | C=CCO/C(O)=C1/C(C)=Nc2nc3ccccc3n2C1c1ccc(C)o1 (stereo not shown) | -5.19
61 | O=C(c1ccccc1)C(c1ccccc1)N1CCCC1 (stereo not shown) | 3.05
62 | COc1ccc(CN2CCC(O)CC2)cc1Br | -4.35
63 | COc1ccc(CNC(=O)C2CCCN2S(=O)(=O)c2cccc3nsnc23)cc1 (stereo not shown) | -4.1
64 | Cc1nc2c(c(C)nn2C(C)(C)C)c(C)c1CCC(=O)NC(C)c1ccccc1 (stereo not shown) | -2.45
65 | O=C(Nc1cccc(Cl)c1)C1CC(=O)N(c2ccccc2)C1 (stereo not shown) | 0.35
66 | Cc1ccc(/C=C2\N=C(c3ccc(C)cc3)OC2=O)cc1 | 2.31
67 | Cn1c(=O)c2c(nc(SCCO)n2Cc2ccc(Cl)cc2)n(C)c1=O | -5.96
68 | Cc1c(C)n(Cc2ccc(F)cc2)c2ccc(C(=O)N3CCC(C(N)=O)CC3)cc12 | -1.19
69 | CN(C)S(=O)(=O)c1ccc(-c2csc(-c3ccc(Cl)cc3)n2)cc1 | -3.34
70 | O=C(CN1C(=O)S/C(=C/c2c[nH]c3ccccc23)C1=O)Nc1ccc2c(c1)OCO2 | 5.25
71 | O=C(c1cc(-c2ccco2)[nH]n1)N1CCn2c1nc1ccccc12 | -2.18
72 | CCOC(=O)N1CCC(/N=C/c2ccc(OC(C)C)cc2)CC1 | -1.03
73 | OCCNc1nc2ccccc2n2nnnc12 | -0.522
74 | COc1ccc2cc(C(=O)Nc3ccc(S(N)(=O)=O)cc3)sc(=O)c2c1OC | 3.86
75 | Nc1nonc1-c1noc(-c2ccc(COc3ccccc3Br)cc2)n1 | 5.49

Row | Compound | % Inhibition @ 10 uM [%]
76 | COc1ccc2c(CNC3CCCC3)c(C(=O)O)[nH]c2c1 | 1.53
77 | O=C(CSc1nc2ccccc2c2nc3ccccc3n12)NCc1ccccc1 | 4.33
78 | Cc1ccc2oc(C(=O)NCc3ccncc3)cc(=O)c2c1 | 0.248
79 | CCc1nn(C(C)C(=O)N2CCC3(CC2)OCCO3)c(=O)c2cc3occc3n12 (stereo not shown) | -0.281
80 | Cc1ccc(S(=O)(=O)N2CCN(C)CC2)cc1[N+](=O)[O-] | 6.53
81 | COc1ccc2ccccc2c1C(O)c1nccn1C (stereo not shown) | -4.43
82 | Cc1nc(SCc2ccc(F)cc2)c2c3c(sc2n1)CCC3 | 10.9
83 | Cn1c(=O)n(C)c2cc(/C=C3/SC(=O)N(Cc4ccc(F)cc4)C3=O)ccc21 | 5.73
84 | CCN1C(=O)/C(=C2\SC(N)=NC2=O)c2cc(Br)ccc21 | -2.16
85 | CCC(C)NC(=O)Cn1ncc2c(C)n(Cc3ccccc3)c(C)c2c1=O (stereo not shown) | 2.84
86 | CCCOc1ccc(/C=C2\SC(=O)N(CC(=O)N3CCOCC3)C2=O)cc1 | 4.22
87 | COc1cccc(CN2CCN(c3ccc(Cl)cc3)CC2)c1 | 1.63
88 | COc1ccc(-c2noc(=O)n2Cc2ccccc2Cl)cc1 | 1.91
89 | O=C(NC1CCCCCC1)c1cc2c(s1)CS(=O)(=O)C2 | -3.67
90 | CCCCNC(=O)C1CCN(C(=O)c2ccc(-n3c(C)cc4ccccc43)s2)CC1 | -2.1
91 | COc1ccc(C(=O)N2CCN(Cc3cc(OC)c(OC)c(OC)c3)CC2)cc1OC | 3.56
92 | Cc1ccc2c(=O)c(C(=O)c3ccc(Cl)cc3)cn(CC(=O)NCC3CCCO3)c2n1 (stereo not shown) | 2.18
93 | Cc1ccc(CN2C(=O)CSc3ccccc32)cc1 | -1.44
94 | COc1ccc(OC)c(/C=C2N=C(/C=C/c3ccc(C)cc3)OC\2=O)c1 | -1.47
95 | CCN(CC)c1ccc(NC(=O)C2CCCC2)cc1 | -1.52
96 | CCOc1ccc(CC(=O)NCc2cn(C)nc2C)cc1OCC | -3.78
97 | CCOc1ccccc1-c1cc(NC(=O)c2cnn(-c3ccccc3)c2-n2cccc2)on1 | 5.4
98 | Cc1cc(C)n(C(CC(=O)O)C(=O)O)n1 (stereo not shown) | -2.08
99 | Cc1ccc(S(=O)(=O)Nc2nnc(C)s2)cc1 | -1.77
100 | CCN(CC)c1nc2c(-c3cccc(C(F)(F)F)c3)nnn2c2ccccc12 | -8.42
